# This is one part of the list. The full chains were built here from the parent and the listed change. Values near 0.05 are background.
# B1: TEV protease; numbered along this chain (parent)
# chain: MGESLFKGPRDYNPISSSICHLTNESDGHTTSLYGIGFGPFIITNKHLFRRNNGTLVVQSLHGVFKVKDTTTLQQHLVDGRDMIIIRMPKDFPPFPQKLKFREPQREERICLVTTNFQTKSMSSMVSDTSCTFPSGDGIFWKHWIQTKDGQCGSPLVSTRDGFIVGIHSASNFTNTNNYFTSVPKNFMELLTNQEAQQWVSGWRLNADSVLWGGHKVFMVKPEEPFQPVKEATQL
# Variants of: B1
# Experiment: raw area under fraction-flipped curve 0-4 h after induction (AUC4h, not background-subtracted), DNA-recorder readout of cleavage of the substrate (dimensionless); higher = more cleavage of the substrate by the protease variant
# Settings: temperature: 34 °C; time window: 0-4 h after rhamnose induction
# Method: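 In vivo DNA recorder in E. coli TOP10(DE3) ΔrhaA at 34 °C. Each TEVp single-site mutant (parent TEVp 0) is paired with a single-site variant of the 7-mer TEVs (canonical ENLYFQ|S). The substrate sits between flexible linkers in a Bxb1-sfGFP-TEVs-SsrA fusion, so cleavage stabilises Bxb1 and speeds flipping of a recombination array, read by NGS. The value is the raw area under the fraction-flipped curve over 0-4 h after rhamnose induction (AUC4h), with ≥20 reads per time point. It is not background-subtracted; inactive controls average about 0.047.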
# 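Note: Bxb1 expression induced with 0.2% (w/v) L-rhamnose at OD600 near 0.5, cultures sampled hourly, flipped fraction per protease–substrate barcode pair counted by paired-end Illumina sequencing.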
Variant,area with substrate DNLYFQS,area with substrate LNLYFQS,area with substrate SNLYFQS,area with substrate TNLYFQS,area with substrate WNLYFQS,area with substrate HNLYFQS,area with substrate KNLYFQS,area with substrate NNLYFQS,area with substrate PNLYFQS,area with substrate INLYFQS
MGESLFKGPRDYNPISSSICHLTNESDGHTTSLYGIGFGPFIITNKHLFRRNNGTLVVQSLHGVFKVKDTTTLQQHLVDGRDMIIIRMPKDFPPFPQKLKFREPQRTERICLVTTNFQTKSMSSMVSDTSCTFPSGDGIFWKHWIQTKDGQCGSPLVSTRDGFIVGIHSASNFTNTNNYFTSVPKNFMELLTNQEAQQWVSGWRLNADSVLWGGHKVFMVKPEEPFQPVKEATQL [E107T],0.0839,0.0607,0.0851,0.061,0.0665,,,,,
MGESLFKGPRDYNPISSSICHLTNESDGHTTSLYGIGFGPFIITNKHLFRRNNGTLVVQSLHGVFKVKDTTTLQQHLVDGRDMIIIRMPKDFPPFPQKLKFREPQREKRICLVTTNFQTKSMSSMVSDTSCTFPSGDGIFWKHWIQTKDGQCGSPLVSTRDGFIVGIHSASNFTNTNNYFTSVPKNFMELLTNQEAQQWVSGWRLNADSVLWGGHKVFMVKPEEPFQPVKEATQL [E108K],0.0489,0.051,0.0571,0.0511,0.0586,0.0542,0.0554,0.0522,0.0566,
MGESLFKGPRDYNPISSSICHLTNESDGHTTSLYGIGFGPFIITNKHLFRRNNGTLVVQSLHGVFKVKDTTTLQQHLVDGRDMIIIRMPKDFPPFPQKLKFREPQRERRICLVTTNFQTKSMSSMVSDTSCTFPSGDGIFWKHWIQTKDGQCGSPLVSTRDGFIVGIHSASNFTNTNNYFTSVPKNFMELLTNQEAQQWVSGWRLNADSVLWGGHKVFMVKPEEPFQPVKEATQL [E108R],0.0417,,,0.0479,0.0452,0.0592,0.0531,,0.0587,0.0318
MGESLFKGPRDYNPISSSICHLTNESDGHTTSLYGIGFGPFIITNKHLFRRNNGTLVVQSLHGVFKVKDTTTLQQHLVDGRDMIIIRMPKDFPPFPQKLKFREPQREEAICLVTTNFQTKSMSSMVSDTSCTFPSGDGIFWKHWIQTKDGQCGSPLVSTRDGFIVGIHSASNFTNTNNYFTSVPKNFMELLTNQEAQQWVSGWRLNADSVLWGGHKVFMVKPEEPFQPVKEATQL [R109A],0.0819,,0.0727,,0.0898,0.0664,0.0693,0.0642,0.0348,0.0617
MGESLFKGPRDYNPISSSICHLTNESDGHTTSLYGIGFGPFIITNKHLFRRNNGTLVVQSLHGVFKVKDTTTLQQHLVDGRDMIIIRMPKDFPPFPQKLKFREPQREENICLVTTNFQTKSMSSMVSDTSCTFPSGDGIFWKHWIQTKDGQCGSPLVSTRDGFIVGIHSASNFTNTNNYFTSVPKNFMELLTNQEAQQWVSGWRLNADSVLWGGHKVFMVKPEEPFQPVKEATQL [R109N],0.063,0.0547,0.0677,,,0.071,,,,
MGESLFKGPRDYNPISSSICHLTNESDGHTTSLYGIGFGPFIITNKHLFRRNNGTLVVQSLHGVFKVKDTTTLQQHLVDGRDMIIIRMPKDFPPFPQKLKFREPQREESICLVTTNFQTKSMSSMVSDTSCTFPSGDGIFWKHWIQTKDGQCGSPLVSTRDGFIVGIHSASNFTNTNNYFTSVPKNFMELLTNQEAQQWVSGWRLNADSVLWGGHKVFMVKPEEPFQPVKEATQL [R109S],0.0656,0.0605,0.063,0.0746,0.0569,0.0582,0.0447,,0.0593,0.066
MGESLFKGPRDYNPISSSICHLTNESDGHTTSLYGIGFGPFIITNKHLFRRNNGTLVVQSLHGVFKVKDTTTLQQHLVDGRDMIIIRMPKDFPPFPQKLKFREPQREERWCLVTTNFQTKSMSSMVSDTSCTFPSGDGIFWKHWIQTKDGQCGSPLVSTRDGFIVGIHSASNFTNTNNYFTSVPKNFMELLTNQEAQQWVSGWRLNADSVLWGGHKVFMVKPEEPFQPVKEATQL [I110W],0.0641,0.0541,,0.0575,,,0.0483,0.0408,0.0619,
MGESLFKGPRDYNPISSSICHLTNESDGHTTSLYGIGFGPFIITNKHLFRRNNGTLVVQSLHGVFKVKDTTTLQQHLVDGRDMIIIRMPKDFPPFPQKLKFREPQREERIELVTTNFQTKSMSSMVSDTSCTFPSGDGIFWKHWIQTKDGQCGSPLVSTRDGFIVGIHSASNFTNTNNYFTSVPKNFMELLTNQEAQQWVSGWRLNADSVLWGGHKVFMVKPEEPFQPVKEATQL [C111E],0.087,,0.028,0.0639,,0.05,0.0539,,0.0605,
MGESLFKGPRDYNPISSSICHLTNESDGHTTSLYGIGFGPFIITNKHLFRRNNGTLVVQSLHGVFKVKDTTTLQQHLVDGRDMIIIRMPKDFPPFPQKLKFREPQREERIQLVTTNFQTKSMSSMVSDTSCTFPSGDGIFWKHWIQTKDGQCGSPLVSTRDGFIVGIHSASNFTNTNNYFTSVPKNFMELLTNQEAQQWVSGWRLNADSVLWGGHKVFMVKPEEPFQPVKEATQL [C111Q],0.0594,0.0749,,,0.0582,,0.0762,,,
MGESLFKGPRDYNPISSSICHLTNESDGHTTSLYGIGFGPFIITNKHLFRRNNGTLVVQSLHGVFKVKDTTTLQQHLVDGRDMIIIRMPKDFPPFPQKLKFREPQREERICLETTNFQTKSMSSMVSDTSCTFPSGDGIFWKHWIQTKDGQCGSPLVSTRDGFIVGIHSASNFTNTNNYFTSVPKNFMELLTNQEAQQWVSGWRLNADSVLWGGHKVFMVKPEEPFQPVKEATQL [V113E],0.0579,0.0546,0.048,,0.0376,,,0.0658,0.0621,

# Same assay, conditions: temperature: 34 °C; time window: 0-4 h after rhamnose induction
Variant,area with substrate YNLYFQS,area with substrate MNLYFQS,area with substrate VNLYFQS,area with substrate FNLYFQS,area with substrate GNLYFQS,area with substrate RNLYFQS
MGESLFKGPRDYNPISSSICHLTNESDGHTTSLYGIGFGPFIITNKHLFRRNNGTLVVQSLHGVFKVKDTTTLQQHLVDGRDMIIIRMPKDFPPFPQKLKFREPQRERRICLVTTNFQTKSMSSMVSDTSCTFPSGDGIFWKHWIQTKDGQCGSPLVSTRDGFIVGIHSASNFTNTNNYFTSVPKNFMELLTNQEAQQWVSGWRLNADSVLWGGHKVFMVKPEEPFQPVKEATQL [E108R],0.041,,,,,
MGESLFKGPRDYNPISSSICHLTNESDGHTTSLYGIGFGPFIITNKHLFRRNNGTLVVQSLHGVFKVKDTTTLQQHLVDGRDMIIIRMPKDFPPFPQKLKFREPQREEAICLVTTNFQTKSMSSMVSDTSCTFPSGDGIFWKHWIQTKDGQCGSPLVSTRDGFIVGIHSASNFTNTNNYFTSVPKNFMELLTNQEAQQWVSGWRLNADSVLWGGHKVFMVKPEEPFQPVKEATQL [R109A],0.0627,0.0799,0.0697,,,
MGESLFKGPRDYNPISSSICHLTNESDGHTTSLYGIGFGPFIITNKHLFRRNNGTLVVQSLHGVFKVKDTTTLQQHLVDGRDMIIIRMPKDFPPFPQKLKFREPQREENICLVTTNFQTKSMSSMVSDTSCTFPSGDGIFWKHWIQTKDGQCGSPLVSTRDGFIVGIHSASNFTNTNNYFTSVPKNFMELLTNQEAQQWVSGWRLNADSVLWGGHKVFMVKPEEPFQPVKEATQL [R109N],,,0.0636,0.062,0.0765,0.0533
MGESLFKGPRDYNPISSSICHLTNESDGHTTSLYGIGFGPFIITNKHLFRRNNGTLVVQSLHGVFKVKDTTTLQQHLVDGRDMIIIRMPKDFPPFPQKLKFREPQREESICLVTTNFQTKSMSSMVSDTSCTFPSGDGIFWKHWIQTKDGQCGSPLVSTRDGFIVGIHSASNFTNTNNYFTSVPKNFMELLTNQEAQQWVSGWRLNADSVLWGGHKVFMVKPEEPFQPVKEATQL [R109S],0.0627,0.0587,,,0.0528,0.0844
MGESLFKGPRDYNPISSSICHLTNESDGHTTSLYGIGFGPFIITNKHLFRRNNGTLVVQSLHGVFKVKDTTTLQQHLVDGRDMIIIRMPKDFPPFPQKLKFREPQREERIELVTTNFQTKSMSSMVSDTSCTFPSGDGIFWKHWIQTKDGQCGSPLVSTRDGFIVGIHSASNFTNTNNYFTSVPKNFMELLTNQEAQQWVSGWRLNADSVLWGGHKVFMVKPEEPFQPVKEATQL [C111E],,,,,0.0595,
MGESLFKGPRDYNPISSSICHLTNESDGHTTSLYGIGFGPFIITNKHLFRRNNGTLVVQSLHGVFKVKDTTTLQQHLVDGRDMIIIRMPKDFPPFPQKLKFREPQREERIQLVTTNFQTKSMSSMVSDTSCTFPSGDGIFWKHWIQTKDGQCGSPLVSTRDGFIVGIHSASNFTNTNNYFTSVPKNFMELLTNQEAQQWVSGWRLNADSVLWGGHKVFMVKPEEPFQPVKEATQL [C111Q],,,,,,0.0673
MGESLFKGPRDYNPISSSICHLTNESDGHTTSLYGIGFGPFIITNKHLFRRNNGTLVVQSLHGVFKVKDTTTLQQHLVDGRDMIIIRMPKDFPPFPQKLKFREPQREERICLETTNFQTKSMSSMVSDTSCTFPSGDGIFWKHWIQTKDGQCGSPLVSTRDGFIVGIHSASNFTNTNNYFTSVPKNFMELLTNQEAQQWVSGWRLNADSVLWGGHKVFMVKPEEPFQPVKEATQL [V113E],0.0475,,0.0377,0.0718,0.0355,

# — the supplement of paper PMC12217912
